The source gives no read counts; variants with many changes may rest on few reads.
B1: CPEB3 Ribozyme (parent)
chain: UAACAGGGGGCCACAGCAGAAGCGUUCACGUCGCAGCCCCUGUCAGAUUCUGGUGAAUCUGCGAAUUCUGCUGUAUAUCUC

Variants of: B1
Experiment: self-cleavage, relative activity (ratio to wild type); higher = more cleavage; in vitro, sequencing
Summary of the method: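 CPEB3 self-cleaving ribozyme mutant libraries were made by rounds of error-prone PCR, barcoded, and transcribed in vitro with T7 RNA polymerase for 5 hours at 37°C. Cleavage occurred during transcription and a 15 min DNase I step before EDTA stop. RNAs were reverse transcribed with template switching and Illumina-sequenced, with DNA sequencing mapping barcodes to variants. Relative activity is the variant's cleaved/total read fraction divided by wild type's (minimum 5 reads), averaged across three batches.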

Variant	self-cleavage
UAACAGGGGGCCUCAGCAGAAGCGUUCACGUCGCGGCCCCGGUCUGAUUCUGGUGAAUCUGCGAAUUCUGCCGUAUAUCUC [A13U A35G U41G A45U U72C]	0.12
UAACAGGGGGCCUCAGCAGAAGCGUUCCCGUCGCAGCCCCUGUCAGAUUCUGGUGAAUCAGCGAAUUCUGCAGUAAAUCUC [A13U A28C U60A U72A U76A]	0.1
UAACAGGGGGCCUCAGCAGAAGCGUUCCCGUCGCAGCCCCUGUCAGAUUCUGGUGAGUCUGCGAAUUCUGCUGUAUAUCUC [A13U A28C A57G]	0.19
UAACAGGGGGCCUCAGCAGAAGCGUUCCCGUCGCAGCCCCUGACAGAUUCUGGUGAAUCUGUGAGUUCUGCUGUAUAUCUC [A13U A28C U43A C62U A65G]	0.11
UAACAGGGGGCCUCAGCAGAUGCGUUCGCGUCGCAGCCCCUGUCAGAUUCUGGUGGAUCAGCGAAUUCUGCUGUACAUCUC [A13U A21U A28G A56G U60A U76C]	0.07
UAACAGGGGGCCUCAGCAGAAGCGUUCUCGUCGCAGCCCCUGUCAGAUCCUGGUGGAUCUGCGAAUUCUGCGGUAUAUCUC [A13U A28U U49C A56G U72G]	0.25
UAACAGGGGGCCUCAGCAGAAGCGUUCUCGUCGCGGCCCCUGUCAGAUUCUGGUGAAUCUGCGAAUUCUGCUGUAUAUCUC [A13U A28U A35G]	1.2
UAACAGGGGGCCUCAGCAGAAGCGUUCUCGUCGCGGCCCCCGUCAGAUUCUGGGAAAUCUGCGAAUUCAGCUGUAUAUCUC [A13U A28U A35G U41C U54G G55A U69A]	0.51
UAACAGGGGGCCUCAGCAGAUGCGUUCACGUCGCUGCCACUGUCAGAUUCUGGUGAAUCUGCGAAUUCUGCUGUAUAUCUC [A13U A21U A35U C39A]	0.18
UAACAGGGGGCCUCAGCAGAAGCGUUCACGUCGCGGCCCCUGUCAGAUUCUGGUGAACCUGCGAAUUCUGCUGUAUAUCUC [A13U A35G U58C]	1.24
UAACAGGGGGCCUCAGCAGAAGCGUUCGCGUCGCAGCCCCUGUCAGAUUCUGCUGAAUCUGCGAAUCCUCCUAUAUAUCUC [A13U A28G G53C U67C G70C G73A]	0.13
UAACAGGGGGCCUCAGCAGAAGCGUUCGCGUCGCAGCCCCUGUCAGAUCCUGGUGAAUCUGCGAAUUCUGCUGUAUACCUC [A13U A28G U49C U78C]	0.12
UAACAGGGGGCCUCAGCAGAAGCGUUCUCGUCGCAGCCCCUGUCAGAUUCUGGUGAAUCUGCGAAUUCUGUUGUAUAUCUC [A13U A28U C71U]	0.44
UAACAGGGGGCCUCAGCAGAUGCGUUCACGUCGCAGCCCCCGCCAGAUUCUGGUGAAUCUGCGAAUUCCGCUGUAUACCUC [A13U A21U U41C U43C U69C U78C]	0.08
UAACAGGGGGCCUCAGCAGAAGCGUUCGCGUCGCAGCCCCUGUCAGAUUCUGGUGAAUCAGCGAAUUCUGCUGUAUAUCUC [A13U A28G U60A]	0.15
UAACAGGGGGCCUCAGCAGAAGCGUUCGCGUCGCAGCCCCUGUCAGAUUCAUGUGAAACUGCGAAUUCUGCGGUAUAUCUG [A13U A28G U51A G52U U58A U72G C81G]	0.45
UAACAGGGGGCCUCAGCAGAAGCGUUCUCGUCGCAGCCCCUGCCAGAUUCUGGAGAAUCAGCGAAUUGUGCUGUAUAUCAC [A13U A28U U43C U54A U60A C68G U80A]	0.06

Variant	self-cleavage
UAACAGGGGGCCUCAGCAGAAGCGUUCGCGUCGCAGCCCCUGUCAGAUUCUGGUGAAUCUGCGAAUUCUGCGGUAUAUCUC [A13U A28G U72G]	0.88
UAACAGGGGGCCUCAGCAGAAGCGUUCUCGUCGCAGCCCCUGUCAGGUCCUGGUGAAUCUGCGAAUUCUGCUGUAUAUCUC [A13U A28U A47G U49C]	0.27
UAACAGGGGGCCUCAGCAGAUGCGUUCACGUCGCAGCCCCUGUCAGAUUCCGGUGAAUCUGCGAAUUCUGCUGUAUAUCUC [A13U A21U U51C]	0.3
UAACAGGGGGCCUCAGCAGAUGUGUUCACGUCGCAGCCCCUGUCAGAUUCUGGUGAAUCUGCGAAUUCUGCUGUAUAUCUC [A13U A21U C23U]	0.17
UAACAGGGGGCCUCAGCAGAAGCGUUCUCGUCGCAGCCCCUGUCAGAUACUGGUGAAUCUGCGAAUUCUGCUGUAUAUCUC [A13U A28U U49A]	0.57
UAACAGGGGGCCUCAGCAGAAGCGUUCACGUCGCGGCCCCUGUCAGAUUCCGGUGAAUCUGCGAAUUCUGCUGUAUAUCUC [A13U A35G U51C]	1.23
UAACAGGGGGCCUCAGCAGAAGCGUUCCCGCCGCAGCCCCUGUAAGAUUCUGGCGAAUCUGCGAAUUCUGCUGUAUAUCUC [A13U A28C U31C C44A U54C]	0.16
UAACAGGGGGCCUCAGCAGAUGCGUCCACGUCGCAGCCCCUGUCAGAUUCUGGUGAAUCUGCGAAUUCUGCUGUAUAUCUC [A13U A21U U26C]	0.31
UAACAGGGGGCCUCAGCAGAUGCGUUCACGUCGCAGCCCCUGUCAGAUUCUGGUGAGUCUGCGAAUUCUGCUGUACAUCUC [A13U A21U A57G U76C]	0.38
UAACAGGGGGCCUCAGCAGAUGCGUUCGCGUCGCAGCCCCUGUCAUAUUCUGGUGAAUCUGCGAAUUCUGCUGUAUAUCUC [A13U A21U A28G G46U]	0.1
UAACAGGGGGCCUCAGCAGAAGCGUUCGCGUCGCAGCCCCUGUCAGAUUCUGGUGAAUAUGCGAAUUCUGCUAUAUAUCUC [A13U A28G C59A G73A]	0.07
UAACAGGGGGCCUCAGCAGAAGCGUUCGCGUCGCAGCCCCAGUCAGAUUCUGGUGAAUCUGUGAGUUCUGCUGUAUAUCCC [A13U A28G U41A C62U A65G U80C]	0.26
UAACAGGGGGCCUCAGCAGAAGCGUUCUCGUCGCAGCCCCUGCCAGAUUCUGGUGAAUCUGCGAAUUCUGUUGUAUAUCUC [A13U A28U U43C C71U]	0.17
UAACAGGGGGCCUCAGCAGAUGCGUUCACGUCGCAGCCCCUGUCAGAUUCUGGUGAAUCUGCGAAUUCUGCUGUAUACCUC [A13U A21U U78C]	0.38
UAACAGGGGGCCUCAGCAGAUGCGUUCACGCCGCAGCCCCUGUCAGAUUCUGGUGAAUCUGCGAAUUCUGCUAUAUAUCUC [A13U A21U U31C G73A]	0.33
UAACAGGGGGCCUCAGCAGAAGCGUUCUCGUCGCAGCCCCUGUCAGAGUCUGGUGAAUCUGCGAAUUCUGCUGUAUAUCUC [A13U A28U U48G]	0.23
UAACAGGGGGCCUCAGCAGAAGCGUUCACGUCGCGGCCCCUGUCCGAUUCUGGUGAAUCUGCGAAUUCUGCCGUAUACCUC [A13U A35G A45C U72C U78C]	0.7
